Values joined by “and” are separate entries in the source; they are usually repeats but may differ in a detail not shown here. Equal entries are not always repeated. The inconclusive results got no clear call from the source; some entries with a clear call stand among them for comparison. For part of these data: Potencies of inconclusive entries are doubtful fits and often do not repeat. More than one record can exist for a structure, and the calls need not agree. Active and inactive are the calls of the source. Unless noted, calls come from the whole dose curve; as a rule, active = well fitted curve in the direction sought with a large enough effect in the repeat runs; inconclusive = weak or mixed curves; inactive = no such curve, though single readings can be large; an effect the other way counts as inactive or inconclusive.
Key:
[1] = molecular target: Peroxisome proliferator-activated receptor gamma (Homo sapiens) (UniProt P37231); test: qHTS assay to identify small molecule agonists of the peroxisome proliferator-activated receptor gamma (PPARg) signaling pathway (AID 743094; active = well fitted activation curve with a large enough effect in the signal ratio in the repeat runs, not every such curve was filed as active; inconclusive = weak or mixed curves, or effect the other way; inactive = no such curve, though single readings can be large or run the other way; the % refers to the signal ratio; for activation: % is set by controls: 0 for no effect and ±100 for the full control effect); conditions: HEK293H PPARg-UAS-bla, beta-lactamase FRET ratio, 17 h; activation: at 57 µM (top of the series) unless noted
Procedure, shortened: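 GeneBLAzer PPARg UAS-bla HEK293H cells were plated, rested 5 h, then exposed to compounds for 17 h at 37C. Beta-lactamase activity was read by LiveBLAzer B/G FRET substrate fluorescence after 1 h at room temperature.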

[2] = molecular target: Peroxisome proliferator-activated receptor gamma (Homo sapiens) (UniProt P37231); test: qHTS assay to identify small molecule antagonists of the peroxisome proliferator-activated receptor gamma (PPARg) signaling pathway (AID 743191; calls by dose curve; note: nearly all actives have a fitted effect of over 30% in size); conditions: HEK293H PPARg-UAS-bla, beta-lactamase ratio, antagonist, 17 h; ratio activity, negative = inhibition: at 62.6 µM (top of the series) unless noted
Procedure, shortened: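 GeneBLAzer PPARg UAS-bla HEK293H cells, 5 h post-plating, exposed to compounds 17 h at 37C. LiveBLAzer B/G FRET substrate added for 1 h at room temperature; beta-lactamase reporter read by fluorescence intensity.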

[3] = qHTS assay to identify small molecule antagonists of the peroxisome proliferator-activated receptor gamma (PPARg) signaling pathway - cell viability counter screen (AID 743194); conditions: PPARg-bla HEK293H viability, CellTiter-Glo luminescence, 17 h, co-treated with 50 nM rosiglitazone; activity change, negative = cytotoxicity: at 62.6 µM (top of the series) unless noted; note: nearly all actives have a fitted effect of over 55% in size; for activity change, negative = cytotoxicity: % is set by controls: 0 for no effect and ±100 for the full control effect
Procedure, shortened: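 Cytotoxicity counter screen in PPARg-bla HEK293H cells, same wells as reporter assay. Compounds plus 50 nM rosiglitazone (final) for 17 h at 37 C, then viability read by CellTiter-Glo luminescence.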

[4] = qHTS assay for small molecule agonists of the antioxidant response element (ARE) signaling pathway - cell viability counter screen (AID 743203; calls by dose curve; note: nearly all actives have a fitted effect of over 55% in size); conditions: ARE-bla HepG2 viability, CellTiter-Glo luminescence, 16 h; viability change, negative = cytotoxic: at 73.3 µM (top of the series)
Procedure, shortened: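 ARE-bla HepG2 cells were plated, rested 5 h at 37C/5% CO2, then exposed to compounds in DMSO for 16 h. Viability was read as CellTiter-Glo luminescence after 30 min at room temperature, in the same wells as the ARE screen.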

[5] = qHTS assay for small molecule activators of the heat shock response signaling pathway - cell viability counter screen (AID 743209); conditions: HSE-bla HeLa viability, CellTiter-Glo luminescence, 5 h; activity change, negative = cytotoxicity: at 62.6 µM (top of the series) unless noted; note: nearly all actives have a fitted effect of over 50% in size
Procedure, shortened: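 HSE-bla HeLa cells plated overnight, then exposed to Tox21 compounds (23 nL in DMSO) for 5 h at 37 C. After the bla reporter read, CellTiter-Glo was added in the same wells and luminescence read after 30 min at room temperature.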

[6] = molecular target: Peroxisome proliferator-activated receptor delta (Homo sapiens) (UniProt Q03181); test: qHTS assay to identify small molecule agonists of the peroxisome proliferator-activated receptor delta (PPARd) signaling pathway (AID 743212; calls by dose curve; for activation: % is set by controls: 0 for no effect and ±100 for the full control effect); conditions: HEK293H PPARd-UAS-bla, beta-lactamase FRET ratio, 17 h; activation: at 62.6 µM (top of the series) unless noted
Procedure, shortened: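 Quantitative high-throughput agonist screen in a HEK293H beta-lactamase reporter line under UAS control. Compounds in DMSO, at 37 C. Fluorescence read after 2 h with FRET substrate at room temperature.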

[7] = qHTS assay to identify small molecule antagonists of the peroxisome proliferator-activated receptor delta (PPARd) signaling pathway - cell viability counter screen (AID 743213); conditions: PPARd-bla HEK293H viability, CellTiter-Glo luminescence, 17 h; viability change, negative = cytotoxic: at 62 µM (top of the series) unless noted; note: nearly all actives have a fitted effect of over 50% in size
Procedure, shortened: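 PPARd-bla HEK293H cells (3000/well) got compound plus 300 nM L165041 agonist for 17 h at 37 C. Viability in the same wells came from CellTiter-Glo luminescence after 30 min at room temperature.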

[8] = molecular target: Peroxisome proliferator-activated receptor delta (Homo sapiens) (UniProt Q03181); test: qHTS assay to identify small molecule antagonists of the peroxisome proliferator-activated receptor delta (PPARd) signaling pathway (AID 743215; active = well fitted inhibition curve with a large enough effect in the signal ratio in the repeat runs, not every such curve was filed as active; inconclusive = weak or mixed curves, or effect the other way; inactive = no such curve, though single readings can be large or run the other way; the % refers to the signal ratio;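 note: cells stimulated with agonist L165041 at 300 nM final during compound exposure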; for ratio activity, negative = inhibition: % is set by controls: 0 for no effect and ±100 for the full control effect); conditions: HEK293H PPARd-UAS-bla, beta-lactamase FRET ratio, antagonist, 17 h; ratio activity, negative = inhibition: at 62 µM (top of the series) unless noted
Procedure, shortened: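 PPARd-bla HEK293H cells (UAS-bla reporter) preincubated 5 h, then given compound plus 300 nM final L165041 agonist for 17 h at 37 C. Beta-lactamase activity read by LiveBLAzer B/G FRET substrate fluorescence after 2 h at room temperature.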

[9] = qHTS assay to identify small molecule agonists of the farnesoid-X-receptor (FXR) signaling pathway - cell viability counter screen (AID 743218); conditions: FXR-bla HEK293T viability, CellTiter-Glo luminescence, 16 h; viability change, negative = cytotoxic: at 62.6 µM (top of the series) unless noted; note: nearly all actives have a fitted effect of over 45% in size
Procedure, shortened: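 FXR-UAS-bla HEK 293T cells exposed to compounds for 16 h at 37C. Cytotoxicity read in the same wells by CellTiter-Glo luminescence after 30 min at room temperature, following the beta-lactamase FRET read.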

[10] = molecular target: Vitamin D3 receptor (Homo sapiens) (UniProt P11473); test: qHTS assay to identify small molecule agonists of the vitamin D receptor (VDR) signaling pathway (AID 743222; calls by dose curve); conditions: HEK293T VDR-UAS-bla, beta-lactamase FRET ratio, 16 h; activation: at 63.5 µM (top of the series) unless noted
Procedure, shortened: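 VDR-bla cells plated 4 h at 37 C, then exposed to compounds for 16 h at 37 C. Beta-lactamase reporter activity measured by fluorescence after 2 h room-temperature loading with LiveBLAzer B/G FRET substrate.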

[11] = molecular target: Vitamin D3 receptor (Homo sapiens) (UniProt P11473); test: qHTS assay to identify small molecule antagonists of the vitamin D receptor (VDR) signaling pathway (AID 743223; active = well fitted inhibition curve with a large enough effect in the signal ratio in the repeat runs, not every such curve was filed as active; inconclusive = weak or mixed curves, or effect the other way; inactive = no such curve, though single readings can be large or run the other way; the % refers to the signal ratio); conditions: VDR-UAS-bla HEK293T, beta-lactamase FRET ratio, 16 h; activity change, negative = inhibition: at 61 µM (top of the series) unless noted
Procedure, shortened: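 Quantitative HTS in VDR-bla reporter cells stimulated with 1alpha,25-dihydroxyvitamin D3, 3 nM final. Compound exposure 16 h, 37C, 5% CO2. Read-out: beta-lactamase FRET substrate fluorescence, 2 h RT.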

[12] = qHTS assay for small molecule agonists of the antioxidant response element (ARE) signaling pathway (AID 743202; active = well fitted activation curve with a large enough effect in the signal ratio in the repeat runs, not every such curve was filed as active; inconclusive = weak or mixed curves, or effect the other way; inactive = no such curve, though single readings can be large or run the other way; the % refers to the signal ratio); conditions: HepG2 ARE-bla reporter, beta-lactamase FRET, 16 h; activation: at 73.3 µM (top of the series) unless noted
Procedure, shortened: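 Agonist mode reporter screen: HepG2 cells with ARE-controlled beta-lactamase are incubated with test compounds for 16 h at 37 C, and beta-lactamase activity is measured as fluorescence of cleaved B/G FRET substrate.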

[13] = molecular target: Bile acid receptor (Homo sapiens) (UniProt Q96RI1); test: qHTS assay to identify small molecule antagonists of the farnesoid-X-receptor (FXR) signaling pathway (AID 743217; active = well fitted inhibition curve with a large enough effect in the signal ratio in the repeat runs, not every such curve was filed as active; inconclusive = weak or mixed curves, or effect the other way; inactive = no such curve, though single readings can be large or run the other way; the % refers to the signal ratio); conditions: HEK293T FXR-UAS-bla, beta-lactamase ratio, CDCA-stimulated, 16 h; activity change, negative = inhibition: at 62.6 µM (top of the series) unless noted
Procedure, shortened: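 FXR-UAS-bla HEK 293T cells (beta-lactamase reporter) given compound plus chenodeoxycholic acid (50 uM final), 16 h at 37C. LiveBLAzer B/G FRET substrate added for 2 h at room temperature; fluorescence read.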

[14] = qHTS assay to identify small molecule antagonists of the farnesoid-X-receptor (FXR) signaling pathway - cell viability counter screen (AID 743221; active = well fitted cell-killing curve with a large enough effect in the repeat runs, not every such curve was filed as active; inconclusive = weak or mixed curves, or effect the other way; inactive = no such curve, though single readings can be large or run the other way; note: nearly all actives have a fitted effect of over 50% in size); conditions: FXR-bla HEK293T viability, CellTiter-Glo luminescence, 16 h; activity change, negative = cytotoxicity: at 62.6 µM (top of the series) unless noted
Procedure, shortened: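 Cytotoxicity is taken from ATP luminescence (CellTiter-Glo, 30 min, room temperature) in FXR-bla HEK 293T cells previously incubated 16 h at 37 C with compound and chenodeoxycholic acid at 50 uM final.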

[15] = qHTS assay to identify small molecule agonists of the vitamin D receptor (VDR) signaling pathway - cell viability counter screen (AID 743224); conditions: VDR-bla HEK293T viability, CellTiter-Glo luminescence, 16 h; activity change, negative = cytotoxicity: at 62.6 µM (top of the series); note: nearly all actives have a fitted effect of over 50% in size
Procedure, shortened: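 VDR-bla cells, 4 h after plating, exposed to compounds for 16 h at 37C; viability then read in the same wells as CellTiter-Glo luminescence after 30 min at room temperature, following the bla FRET read.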

[16] = qHTS assay to identify small molecule agonists of the peroxisome proliferator-activated receptor delta (PPARd) signaling pathway - cell viability counter screen (AID 743211); conditions: PPARd-bla HEK293H viability, CellTiter-Glo luminescence, 17 h; activity change, negative = cytotoxicity: at 62.6 µM (top of the series) unless noted; note: nearly all actives have a fitted effect of over 55% in size
Procedure, shortened: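 Tox21 library compounds, delivered in DMSO, were incubated 17 h with PPARd-bla HEK293H cells; cytotoxicity was taken from CellTiter-Glo luminescence read 30 min after reagent addition.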
Potency is the fitted concentration of half-maximal effect; tags give direction and shape of the fitted curve or compound fluorescence and quenching.

Sequence of UniProt Q03181 (Q03181 whole entry, looked up): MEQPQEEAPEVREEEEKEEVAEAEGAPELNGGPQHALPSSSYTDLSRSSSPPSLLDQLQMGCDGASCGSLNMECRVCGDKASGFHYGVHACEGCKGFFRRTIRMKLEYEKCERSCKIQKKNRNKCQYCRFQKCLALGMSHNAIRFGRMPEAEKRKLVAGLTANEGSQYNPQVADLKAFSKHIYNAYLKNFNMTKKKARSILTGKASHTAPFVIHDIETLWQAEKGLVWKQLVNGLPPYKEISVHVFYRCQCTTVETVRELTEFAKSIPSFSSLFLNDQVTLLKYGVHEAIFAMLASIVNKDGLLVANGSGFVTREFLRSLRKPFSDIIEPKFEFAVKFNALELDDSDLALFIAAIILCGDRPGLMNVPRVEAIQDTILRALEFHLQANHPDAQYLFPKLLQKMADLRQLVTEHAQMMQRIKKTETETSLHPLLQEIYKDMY
Sequence of UniProt P11473 (P11473 whole entry, looked up): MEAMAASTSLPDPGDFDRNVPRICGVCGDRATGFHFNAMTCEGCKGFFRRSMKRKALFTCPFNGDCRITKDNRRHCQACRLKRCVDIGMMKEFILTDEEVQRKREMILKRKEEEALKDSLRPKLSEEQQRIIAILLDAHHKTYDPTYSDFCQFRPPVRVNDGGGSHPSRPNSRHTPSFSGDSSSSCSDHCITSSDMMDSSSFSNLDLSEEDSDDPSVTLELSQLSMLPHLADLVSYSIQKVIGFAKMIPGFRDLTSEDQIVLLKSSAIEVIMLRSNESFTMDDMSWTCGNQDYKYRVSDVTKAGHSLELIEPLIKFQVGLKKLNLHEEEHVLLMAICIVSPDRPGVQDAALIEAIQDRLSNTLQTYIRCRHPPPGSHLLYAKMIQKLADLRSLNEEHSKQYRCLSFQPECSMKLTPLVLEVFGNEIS
Sequence of UniProt P37231 (P37231 whole entry, looked up): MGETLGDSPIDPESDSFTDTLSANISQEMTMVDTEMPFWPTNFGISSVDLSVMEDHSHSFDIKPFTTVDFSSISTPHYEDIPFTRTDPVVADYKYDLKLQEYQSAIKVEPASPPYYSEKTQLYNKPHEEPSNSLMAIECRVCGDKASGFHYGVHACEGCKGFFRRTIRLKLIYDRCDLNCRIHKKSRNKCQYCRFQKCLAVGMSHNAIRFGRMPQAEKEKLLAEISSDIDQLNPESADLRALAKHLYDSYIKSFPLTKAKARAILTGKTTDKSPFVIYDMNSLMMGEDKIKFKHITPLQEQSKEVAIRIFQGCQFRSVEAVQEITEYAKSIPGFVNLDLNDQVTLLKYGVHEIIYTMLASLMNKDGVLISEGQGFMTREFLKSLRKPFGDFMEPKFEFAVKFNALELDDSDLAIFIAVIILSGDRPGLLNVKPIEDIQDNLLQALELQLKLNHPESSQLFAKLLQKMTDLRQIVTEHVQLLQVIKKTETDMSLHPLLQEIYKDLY
Sequence of UniProt Q96RI1 (Q96RI1 whole entry, looked up): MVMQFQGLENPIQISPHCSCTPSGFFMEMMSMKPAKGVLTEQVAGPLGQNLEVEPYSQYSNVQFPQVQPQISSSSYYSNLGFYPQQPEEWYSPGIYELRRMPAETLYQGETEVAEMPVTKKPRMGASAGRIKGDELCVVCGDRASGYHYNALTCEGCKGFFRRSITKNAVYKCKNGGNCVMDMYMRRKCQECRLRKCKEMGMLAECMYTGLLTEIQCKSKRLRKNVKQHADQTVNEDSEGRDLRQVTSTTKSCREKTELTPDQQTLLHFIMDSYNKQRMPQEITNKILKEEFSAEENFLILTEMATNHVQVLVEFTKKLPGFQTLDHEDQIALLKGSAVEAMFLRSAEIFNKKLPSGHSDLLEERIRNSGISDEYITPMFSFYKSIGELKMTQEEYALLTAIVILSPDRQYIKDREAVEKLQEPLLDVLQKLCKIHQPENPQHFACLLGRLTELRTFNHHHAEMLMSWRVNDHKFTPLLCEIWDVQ

Structure (SMILES)	Potency [1]	Potency [2]	Potency [3]	activity change, negative = cytotoxicity [3]	Potency [4]	Potency [5]	Potency [6]	Potency [7]	Potency [8]	Potency [9]	Potency [10]	Potency [11]	Potency [12]	ratio activity, negative = inhibition [8]	Potency [13]	Potency [14]	Potency [15]	activation [1]	Potency [16]	viability change, negative = cytotoxic [9]
CNCCCC12CCC(c3ccccc31)c1ccccc12	inactive and inconclusive: 61.6 µM [cytotoxic]	inconclusive: 4.9 µM [inhibitor, full curve] and active: 13.3 µM	active: 54.9 µM	inconclusive: -46.8% [cytotoxic]	active: 19.3 µM and inconclusive: 33.5 µM [cytotoxic, single point]	inconclusive: 54.9 µM [cytotoxic, single point]	inconclusive: 17.4 µM [rising, partial curve, poor fit]	active: 9.77 µM and active: 16.8 µM	inconclusive: 61.6 µM [cytotoxic, single point]	active: 19.5 µM	inconclusive: 21.9 µM and inconclusive: 2.66 µM [fluorescent, full curve, poor fit]	inconclusive: 17.4 µM	–	–	–	–	–	–	–	–
CC(=O)NC1(c2cccc(F)c2)CCN(CC[C@@]2(c3ccc(Cl)c(Cl)c3)CN(c3ccccc3)C(=O)CO2)CC1	inconclusive: 6.18 µM [rising, full curve]	active: 43.8 µM	active: 34.8 µM	–	active: 19.4 µM	–	inconclusive: 8.73 µM [rising, partial curve, poor fit]	active: 21.9 µM	–	active: 15.5 µM	–	inconclusive: 43.8 µM [partial curve]	inconclusive: 24.4 µM [falling, full curve]	inconclusive: -65.1%	inconclusive: 39 µM	active: 24.6 µM	active: 39 µM	–	–	–
OC[C@H]1O[C@@H](n2cnc3c(=S)nc[nH]c32)[C@H](O)[C@@H]1O	–	inconclusive: 8.41 µM [rising, partial curve, poor fit]	active: 3.76 µM	–	–	–	inactive	–	–	–	–	–	active: 3.35 µM	inconclusive: -43%	inconclusive: 21.1 µM [inhibitor, partial curve]	active: 16.8 µM	active: 7.5 µM	inconclusive: -16%	inconclusive: 11.9 µM [cytotoxic]	inconclusive: -44.8% [cytotoxic]

— PubChem BioAssay (Tox21)
